The other results are listed elsewhere or left out.
System: T1, C. trachomatis L2/434/Bu expressing GFP (CTL2-GFP)
T1 construct: L2/434/Bu GFP intracellular growth in HeLa cells
Parameters: species or system HeLa; C. trachomatis total inclusion area by high-content imaging, normalised to DMSO
Conditions: total inclusion area; 28.5 h, 10 µM; inhibitor
Summary of the method: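 Imaging read-out: GFP inclusions and Hoechst nuclei captured by high-content imaging after fixation. Inclusion area/number = chlamydial growth; nuclei count = host cell viability. MIC calculated per earlier method.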

Structure (SMILES)	% of control remaining
Cc1nc(C2(O)CCCN(Cc3cccc(F)c3)CC2)sc1CCOc1ccccc1 (centres unmarked) [CBK286024]	94.84
O=C(O)CCSc1nc2ccccc2nc1C(F)(F)F [CBK107866]	87.3322
C=CCn1c(Cc2csc(NC(=O)c3ccc([N+](=O)[O-])cc3)n2)n[nH]c1=S [CBK295290]	100.575
Cc1cc(C)cc(OCc2nnc(SCC(=O)Nc3c(F)cc(F)cc3Br)n2C)c1 [CBK268604]	93.4598
CCOC(=O)N(C)c1c(CC)nc2ccc(C(=O)N(C)CCCN(C)C)cn12 [CBK146478]	98.6808
Oc1nsnc1-c1ccccc1 [CBK026014]	98.3478
CN1CC=C(/C=C/c2ccc(Sc3ncccn3)o2)CC1 [CBK283797]	73.9186
c1ccc(-c2nn3c(CN4CCOCC4)nnc3c3ccccc23)cc1 [CBK269779]	126.611
CC(C)NC(=O)[C@@H]1CN(C)C[C@]12CCc1ccccc1C2=O [CBK284764]	64.3661
O=C(c1sccc1NS(=O)(=O)c1ccc(Oc2ccccc2)cc1)N1CCOCC1 [CBK050423]	87.7441
CCN(Cc1ccncc1)C(=O)NCCCSC [CBK155125]	92.5028
O=C(NCCCc1ccccn1)c1cnn(-c2ccc(F)cc2)c1 [CBK283287]	101.486
Cc1cc(C)n(C(CC(=O)c2ccccc2)C(=O)O)n1 (centres unmarked) [CBK287209]	99.4581
Cc1nc(-c2ccccc2)sc1CNC(=O)C1CC1C (centres unmarked) [CBK092369]	114.085
COc1ccc(-c2nc3ccc(C)cc3c(C(=O)NCCc3ccc(S(N)(=O)=O)cc3)c2C)cc1 [CBK267753]	93.4539
Cc1nc2c(OCc3ccc(F)c(F)c3)cccn2c1N(C)CC1CC1 [CBK147276]	86.7666
COc1cc(C=O)ccc1OCC(=O)Nc1ccc(C)c(Cl)c1 [CBK266190]	108.58
COc1cccc(C(=O)N2CCC(NC(=O)c3csc(-c4ccccc4)n3)CC2)c1 [CBK155030]	99.447
Cc1cccc(C(=O)N2CCN(S(=O)(=O)c3sc(C(=O)O)c(C)c3C(=O)O)CC2)c1 [CBK297124]	90.9459
COCCCN1C(=O)C(O)=C(C(=O)c2ccc(C)o2)C1c1ccc(Br)cc1 (centres unmarked) [CBK264876]	111.908
CCCS(=O)(=O)Nc1cccc(-c2nnn[nH]2)c1 [CBK155417]	81.9167
Cc1cc2[nH]cc(C(=O)N3CCCC3c3ccco3)c(=O)n2n1 (centres unmarked) [CBK307390]	82.2277
Cc1ccc(S(=O)(=O)N(C)C)cc1NC(=O)C12CCC(C)(C(=O)C1)C2(C)C (centres unmarked) [CBK266551]	93.7413
CC(=O)N1CCC(c2nc(C3CCCC3)no2)C1 (centres unmarked) [CBK285452]	99.0037
O=C(CN1CCN(S(=O)(=O)N2CCCCCC2)CC1)Nc1cc(Cl)ccc1Cl [CBK269587]	98.2244
COCCN(CCOC)Cc1c(C)nc2c(C)c(C)ccc2c1O [CBK265031]	113.955
Cc1cc2c(cc3c(=O)n(CC(=O)N4CCCC4)nc(C)n32)s1 [CBK284065]	103.989

Structure (SMILES)	% of control remaining
CNC(=O)c1ccc(-c2ccc3[nH]ccc3c2)nc1N(C)C [CBK106146]	87.7525
Sc1nnc(-c2ccncc2)n1/N=C/c1cccnc1 [CBK265336]	84.3132
Cc1cc2occ(CC(=O)NC3CCCN(C)C3)c2cc1C (centres unmarked) [CBK282611]	110.727
N[C@@H](Cc1c[nH]c2ccccc12)C(=O)N1CC[C@H]2NC(=O)[C@@H](Cc3ccccc3)NC(=O)C3(C/C=C/C[C@@H]2C1)CCOCC3 [CBK292202]	114.864
Cn1nnc(NC(=O)COc2ccc(C3CCCCC3)cc2)n1 [CBK266442]	121.426
CS(=O)(=O)N(Cc1ccccc1)c1ccc(C(=O)Nc2ccccc2C(=O)O)cc1 [CBK264117]	98.5118
COc1cc(CNC(=O)NC(=O)C2CCN(CCc3cccc(O)c3)CC2)cc(OC)c1OC [CBK034857]	98.5281
Cc1csc(CC(C)n2cc(Cl)cn2)n1 (centres unmarked) [CBK304797]	40.2177
Cc1nn(C)cc1-c1cncn1CCCC(C)(C)CO [CBK281492]	93.7756
O=C(Nc1cccc(C(F)(F)F)c1)c1nc[nH]n1 [CBK027341]	109.332
CC(=O)c1c(C)[n+]([O-])c2cc(Cl)c(Cl)cc2[n+]1[O-] [CBK265017]	103.689
S=C(NCCc1ccc(Cl)cc1)NCc1ccco1 [CBK266812]	106.18
O=C(c1ccccc1NS(=O)(=O)c1ccc(Br)cc1)N1CCOCC1 [CBK043340]	114.464
Cc1ccc2cc(CN(Cc3ccco3)C(=O)c3cccs3)c(O)nc2c1 [CBK269274]	110.767
O=C(Nc1cccc(-c2nc3ccccc3s2)c1)c1ccc(S(=O)(=O)N2CCCC2)cc1 [CBK261787]	101.907
CC(C)(C)C1CCc2onc(C(=O)NCCn3ccnc3)c2C1 (centres unmarked) [CBK281581]	83.2098
CC(NS(=O)(=O)c1cc(Cl)ccc1Cl)C(=O)Nc1ccccc1 (centres unmarked) [CBK267871]	95.5009
C=C(C)CN1CCN(Cc2cnn(C3CCCCC3)c2)CC1 [CBK282828]	86.2537
CCCCc1ccc(-c2cc3ncccc3nc2N)cc1 [CBK081198]	89.8862
O=C(O)CCc1c(-c2ccccc2)cc2ccccn12 [CBK266308]	96.7595
Cc1nn(CC(=O)NC2CCCC2)c(=O)c2cc3sccc3n12 [CBK284023]	60.3624
Cc1cnccc1-c1c[nH]nc1-c1cccc(CNS(=O)(=O)c2ccc(F)c(F)c2)c1 [CBK285627]	98.1844
Cc1c(C(=O)Nc2ccc(S(=O)(=O)N3CCCCCC3)cc2)oc2ccc(Cl)cc12 [CBK267664]	84.6973
NCCCN(Cc1ccco1)C1CCCC1 [CBK268856]	82.9268
CS(=O)(=O)c1ccc(-c2ccc(COC3CCN(C(=O)Cc4cccc(C(F)(F)F)c4)CC3)cn2)cc1 [CBK162231T]	86.0929
CC(C)C(CNCc1cncnc1)c1ccnn1C (centres unmarked) [CBK304190]	90.5738
Cc1ccc(OCc2nc(C)c(C(=O)N3CCCC(C)C3)s2)cc1 (centres unmarked) [CBK305356]	64.6325

Structure (SMILES)	% of control remaining
CCc1c(C(=O)NC(C)c2cccc(Cl)c2)cnc2cc(O)nn12 (centres unmarked) [CBK291243]	96.7632
O=S(=O)(c1ccc(-c2ccccc2)cc1)N1CCCN(CCCO)CC1 [CBK063043]	40.4359
Cc1cccc(-c2ccc(CC3(C(N)=O)CCN(C(=O)COc4ccccc4)CC3)cc2)c1 [CBK285797]	104.72
CC(C)(C)c1ccc(C(=O)N2CCC3(CC2)CC(=O)N(Cc2ccc(S(C)(=O)=O)cc2)C3=O)cc1 [CBK155018]	96.6006
CC(C)[C@@H](CO)Nc1nc(-c2occc2C=O)cnc1N [CBK063733]	146.082
COc1nccnc1OC1CCN(CCc2c[nH]c3ccccc23)CC1 [CBK084261]	90.5692
O=C1CC(c2ccccc2)c2c(n3ncnc3[nH]c2=O)N1 (centres unmarked) [CBK287912]	103.352
COc1cc2c(cc1OC)C(c1ccc(C(=O)O)cc1)NCC2 (centres unmarked) [CBK286738]	109.513
CN(C)[C@@H]1CN(Cc2ccccn2)C[C@H]1c1cn(C)c2ccccc12 [CBK284582]	82.2394
O=C(CCc1ccccc1)NNC(=O)C1CC1c1ccccc1 (centres unmarked) [CBK261292]	91.9465
Cc1noc(C)c1CC(=O)N1CCC(c2ccccc2)C1 (centres unmarked) [CBK281959]	120.282
c1ccc(COc2nccnc2-c2ccccc2)cc1 [CBK106686]	84.7878
Cc1cc(CNS(=O)(=O)N2CCCC2)c2[nH]c(C)c(C)c2c1 [CBK282772]	109.471
COc1ccc(NC(=O)CSCc2cc(O)[nH]n2)cc1 [CBK268417]	91.0298
COc1ccc(NC(=O)c2ccc(-c3cnc(Nc4ccc(N5CCOCC5)cc4)c4nccn34)cc2)cc1 [CBK091240]	157.437
COc1ccc(Sc2nc3ccccc3nc2C(F)(F)F)cc1OC [CBK093779]	100.794
Cn1c(=O)c2c(nc(SCC(=O)CSc3nc4c(c(=O)n(C)c(=O)n4C)n3C)n2C)n(C)c1=O [CBK267692]	114.585
O=C(NC1CCCC1)c1ccncc1 [CBK143916]	67.3422
CC12CCC(C(=O)O)(c3nc4c(ccc5ncccc54)nc31)C2(C)C (centres unmarked) [CBK269470]	91.3773
COc1ccc(CC(C(=O)Nc2ccc3nc[nH]c(=O)c3c2)c2ccccc2)cc1 (centres unmarked) [CBK285863]	110.637
O=S(=O)(c1cc(Cl)sc1Cl)N1CCCCC1CO (centres unmarked) [CBK051422]	82.794
C[C@H](Nc1nccnc1-c1ccco1)c1ccccc1 [CBK037032]	148.805
O=C(COc1ccccc1Cl)N/N=C/c1ccc(-c2ccccc2[N+](=O)[O-])o1 [CBK262782]	102.146
C=CCn1c(Cc2csc(NC(=O)c3cnc(C)cn3)n2)n[nH]c1=S [CBK295319]	95.7996
c1ccc2c(c1)CCN(Cc1ncc[nH]1)C2 [CBK126402]	99.5437
O=C(NCc1ccco1)C1(c2ccccc2)CCCC1 [CBK149539]	85.5492

— PMC12040169 (PLOS Biology, 2025)
